From PMC4336329 (PLoS ONE, 2015) come the findings set out here.

The campaign covered roughly 310,000 compounds. About 2,200 (0.71%) showed an effect of 50% or more. The effect is printed as a negative number. This is one part of the list.

human ether-à-go-go-related gene (hERG) potassium channel, sequence (Q12809 whole entry, looked up): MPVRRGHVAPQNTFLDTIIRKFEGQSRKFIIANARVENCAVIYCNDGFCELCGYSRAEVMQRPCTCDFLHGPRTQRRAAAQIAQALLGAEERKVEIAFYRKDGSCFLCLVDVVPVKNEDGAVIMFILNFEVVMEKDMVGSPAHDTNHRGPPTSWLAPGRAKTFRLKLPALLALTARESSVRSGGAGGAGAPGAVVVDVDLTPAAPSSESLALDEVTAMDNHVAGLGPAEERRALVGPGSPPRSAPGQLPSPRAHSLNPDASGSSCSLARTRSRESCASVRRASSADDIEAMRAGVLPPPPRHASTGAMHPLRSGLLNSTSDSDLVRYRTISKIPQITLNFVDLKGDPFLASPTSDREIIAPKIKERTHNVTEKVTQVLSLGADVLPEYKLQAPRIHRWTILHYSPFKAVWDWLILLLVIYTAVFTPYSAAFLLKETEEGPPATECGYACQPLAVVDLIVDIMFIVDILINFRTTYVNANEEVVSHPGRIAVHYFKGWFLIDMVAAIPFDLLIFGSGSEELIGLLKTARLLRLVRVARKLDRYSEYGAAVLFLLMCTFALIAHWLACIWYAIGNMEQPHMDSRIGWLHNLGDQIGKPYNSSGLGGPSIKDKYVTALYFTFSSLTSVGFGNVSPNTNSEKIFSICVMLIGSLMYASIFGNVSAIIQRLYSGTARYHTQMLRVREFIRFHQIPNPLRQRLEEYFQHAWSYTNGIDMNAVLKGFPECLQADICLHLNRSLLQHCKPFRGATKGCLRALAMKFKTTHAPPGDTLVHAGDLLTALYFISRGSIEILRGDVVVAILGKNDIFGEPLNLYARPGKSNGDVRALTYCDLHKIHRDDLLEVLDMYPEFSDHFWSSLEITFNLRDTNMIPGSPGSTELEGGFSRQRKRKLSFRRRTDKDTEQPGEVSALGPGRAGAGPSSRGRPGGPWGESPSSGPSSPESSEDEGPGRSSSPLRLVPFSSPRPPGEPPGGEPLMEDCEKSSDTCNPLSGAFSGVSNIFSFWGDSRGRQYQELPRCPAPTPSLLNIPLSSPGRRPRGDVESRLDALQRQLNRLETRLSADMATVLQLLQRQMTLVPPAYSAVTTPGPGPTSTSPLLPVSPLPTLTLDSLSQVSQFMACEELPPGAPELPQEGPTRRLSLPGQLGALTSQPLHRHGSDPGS

The assay has as its target human ether-à-go-go-related gene (hERG) potassium channel (human, UniProt Q12809). In words: primary screen, population patch clamp on CHO cells stably expressing hERG.
For `Cc1cc2cc(CNC(=O)Cc3ccc([N+](=O)[O-])cc3)ccc2[nH]1`, the “hERG current change (%, negative = inhibition) at 1uM” value is recorded as -1.9%. On to `Cc1ccc(S(=O)(=O)NCc2ccccc2)cc1C(=O)N(C)Cc1ccc(F)cc1`, for which the “hERG current change (%, negative = inhibition) at 1uM” value was -0.769%. Then `Cc1ccc(/C=C/C(=O)Nc2cccc(S(=O)(=O)N3CCOCC3)c2)o1`, with 2.3%; and `CCOc1cc2[nH]c(=S)n(CCCN3CCOCC3)c(=O)c2cc1OCC`, with -2.09%. Under `NS(=O)(=O)c1ccc(CCNC(=O)CN2CCC(Cc3ccccc3)CC2)cc1` stands -1.53%. Under `COc1ccc(NC(=O)C2CCCN2C(=O)Nc2ccccc2)cc1OC` (stereo not shown) stands 11.4%.

Regarding `N#Cc1nc(N2CCCC2)nc(N2CCCC2)n1`, the “hERG current change (%, negative = inhibition) at 1uM” value was -2.63%.

Regarding `CC(C)(C)OC(=O)N1CCC(CNC(=O)Nc2ccccc2)CC1`, the “hERG current change (%, negative = inhibition) at 1uM” value was found to be 13.7%. Consider `COc1ccccc1N1CCN(C(=O)/C=C/c2ccccc2)CC1`, for which the “hERG current change (%, negative = inhibition) at 1uM” value is listed as -3.71%.

Regarding `CNS(=O)(=O)/C=C/c1ccccc1`, the “hERG current change (%, negative = inhibition) at 1uM” value is 7.05%. Under `O=C(CN1CCN(Cc2ccc(F)cc2)CC1)Nc1nc2ccccc2s1` stands -54%; under `CC1CCN(C(=O)CSc2ccc(-c3cccnc3)nn2)CC1`, 14.5%. Then `Cc1ccc(OCC(=O)N2CCN(c3nnc(-c4ccc(C)cc4)c4ccccc34)CC2)cc1`, with -8.43%. Under `O=S(=O)(c1ccc2[nH]ccc2c1)N1CCCCCC1` stands 15.1%; under `N#Cc1ccccc1NC(=O)COC(=O)c1ccc2c(c1)OCO2`, 14.1%. Consider `CN(Cc1cnn(Cc2ccccc2)c1)C(=O)c1cccc(S(=O)(=O)N2CCOCC2)c1`, for which the “hERG current change (%, negative = inhibition) at 1uM” value is 15.8%. Regarding `COc1ccc(/C=C2\C(=N)N3N=C(CC(=O)N4CCCCC4)SC3=NC2=O)cc1`, the “hERG current change (%, negative = inhibition) at 1uM” value was 1.73%. As to `CCc1ccccc1NC(=O)CN1CCN(C(=O)CCC(=O)N2CCC(c3ccccc3)=N2)CC1`, the “hERG current change (%, negative = inhibition) at 1uM” value is given as -13.1%. Then `COc1cc2nc(NC(=O)c3ccccc3)[nH]c(=O)c2cc1OC`, with 10.9%; and `O=C(Nc1ccc(O)c2c(=O)cc(-c3ccccc3Cl)oc12)c1cccs1`, with 5.25%; and `CC(=O)N1CCc2cc(S(=O)(=O)N3CCc4ccccc43)ccc21`, with -9.95%.

On to `COc1ccc(-c2nnc(NC(=O)c3ccc(S(=O)(=O)N(C)CC4CCCO4)cc3)o2)c(OC)c1` (stereo not shown), for which the “hERG current change (%, negative = inhibition) at 1uM” value is 15.8%. Then `Cc1ccc2nc(SCC(=O)Nc3ccc4c(c3)OCCO4)[nH]c2c1`, with 9.56%; and `Cn1nc(C(F)(F)F)c(/C=N/OCc2c(Cl)cccc2Cl)c1Cl`, with 8.36%; and `CCCCC/C=C\C/C=C\C/C=C\CCCCC(=O)O`, with 5.17%. Regarding `O=C(OCc1ccc(Br)cc1)c1cccc(S(=O)(=O)N2CCCC2)c1`, the “hERG current change (%, negative = inhibition) at 1uM” value amounted to 8.56%. Consider `CCC(=O)Nc1ccc(S(=O)(=O)NCC2CCCO2)cc1` (stereo not shown), for which the “hERG current change (%, negative = inhibition) at 1uM” value is recorded as 7.79%. Consider `CCN(CC)S(=O)(=O)c1ccc(N2CCOCC2)c(NC(=O)C2CCCO2)c1` (stereo not shown), for which the “hERG current change (%, negative = inhibition) at 1uM” value came out at 7.25%.

With `C=CCC(C(=O)NC(C)c1ccccc1)C(=O)NC(C)c1ccccc1` (stereo not shown), the “hERG current change (%, negative = inhibition) at 1uM” value was -0.302%. Under `C=CCOc1c2ccc(C(=O)NCc3ccc(C)cc3)cc2nn1C` stands 12.8%; under `Cc1ccc(/C=C/C(=O)N2CC(C)CC(C)C2)o1` (stereo not shown), 6.28%; under `CCCCn1c(O)c(C=NCc2ccc3c(c2)OCO3)c(=O)[nH]c1=O`, 7.43%.

As for `COCCn1c(CCC(=O)O)nc2c1c(=O)[nH]c(=O)n2CC(C)C`, the “hERG current change (%, negative = inhibition) at 1uM” value amounted to 13.9%. In the case of `O=C(NNC(=O)c1cc([N+](=O)[O-])ccc1Cl)c1cccnc1`, the “hERG current change (%, negative = inhibition) at 1uM” value came out at 18.2%. In the case of `COc1ccc(N(CC(=O)NC2CCCCCC2)S(=O)(=O)c2ccc(C)cc2)cc1OC`, the “hERG current change (%, negative = inhibition) at 1uM” value worked out at 12.3%. Consider `COc1ccc(S(=O)(=O)CCC(=O)Nc2c(C)n(C)n(-c3ccccc3)c2=O)cc1`, for which the “hERG current change (%, negative = inhibition) at 1uM” value stood at 3.34%. In the case of `CN(c1ccccc1)S(=O)(=O)c1cccc(NC(=O)c2ccc3ncsc3c2)c1`, the “hERG current change (%, negative = inhibition) at 1uM” value came out at 10.9%. Then `Cc1ccccc1NS(=O)(=O)c1ccc(OCC(=O)NCc2ccccn2)cc1`, with 3.12%; and `Cn1c(SCC(=O)NC2CCCC2)nnc1C(F)(F)F`, with 8.54%. Under `Cc1ccccc1CSc1nccn1-c1ccccc1` stands -0.649%; under `CCN(CC(=O)NCc1ccc(Cl)cc1)C(=O)CSc1ccccc1`, -22.5%; under `COc1cc(/C=C2\CCC(C3CCCC3)C2=O)ccc1OC(C)C` (stereo not shown), 10.1%. In the case of `O=S(=O)(c1ccc(OCC(O)CN2CCc3ccccc3C2)cc1)N1CCOCC1` (stereo not shown), the “hERG current change (%, negative = inhibition) at 1uM” value is 5.61%. As for `Clc1ccc(-c2c[n+](Cc3ccc(Cl)cc3Cl)c3n2CCCCC3)cc1.[Br-]`, the “hERG current change (%, negative = inhibition) at 1uM” value is on record as -21%.

On to `CCCc1nc2c(s1)CCc1onc(-c3ccc(Cl)cc3)c1-2`, for which the “hERG current change (%, negative = inhibition) at 1uM” value is recorded as 12.5%.

For `Cc1ccc(NC(=O)N2CCC(O)(c3cccnc3)CC2)cc1`, the “hERG current change (%, negative = inhibition) at 1uM” value came to 9.55%. Turning to `COc1ccccc1Nc1nc(N)nc(CSCCO)n1`, the “hERG current change (%, negative = inhibition) at 1uM” value was found to be 11.2%. As to `CCOC(=O)C(NCc1ccco1)(NC(=O)c1ccc(OC)cc1)C(F)(F)F` (stereo not shown), the “hERG current change (%, negative = inhibition) at 1uM” value is 5.91%. With `COc1ccc2cc(C(=O)C3CCCN(C4CCOCC4)C3)ccc2c1` (stereo not shown), the “hERG current change (%, negative = inhibition) at 1uM” value is on record as -23.7%. On to `CN(C(=O)CN1CCCCCC1)c1c(N)n(Cc2ccccc2)c(=O)[nH]c1=O`, for which the “hERG current change (%, negative = inhibition) at 1uM” value worked out at 8.52%.

As to `COc1ccccc1C(=O)NCCNc1ccc([N+](=O)[O-])cc1Cl`, the “hERG current change (%, negative = inhibition) at 1uM” value is 16.6%. With `CCc1ccc(Nc2nnc(SCC(=O)NC(=O)CN3CCCC3=O)s2)cc1`, the “hERG current change (%, negative = inhibition) at 1uM” value was determined as 8.06%.

On to `CC(=O)Nc1ccccc1-c1nc2ccc(C(=O)N3CCN(c4ccccc4)CC3)cc2[nH]c1=O`, for which the “hERG current change (%, negative = inhibition) at 1uM” value was found to be 11.3%.

As for `N#C/C(=C(/O)COc1ccc(Cl)cc1)c1nc2ccccc2s1`, the “hERG current change (%, negative = inhibition) at 1uM” value was found to be 16.8%. For `CC(C)OCCCNC(=O)c1c(N)n(/N=C/c2cccs2)c2nc3ccccc3nc12`, the “hERG current change (%, negative = inhibition) at 1uM” value is listed as -3.4%.

On to `CCCCCCC1CCC(C(=O)N2CCOCC2)CC1` (stereo not shown), for which the “hERG current change (%, negative = inhibition) at 1uM” value amounted to 7%. Under `Cc1ccc2nc(-c3ccc4c(c3)NC(=O)CO4)cn2c1` stands 16.6%; under `c1ccc2c(c1)ccc1nnc(SCc3ccc4c(c3)OCCO4)n12`, 10.1%. Then `Clc1ccc(-c2nnc(NCCN3CCCC3)c3ccccc23)cc1`, with -55.1%; and `CCOCCOC(=O)COc1ccc2c(-c3ccccc3)cc(=O)oc2c1`, with 6.86%.

In the case of `Cc1cc(NC(=O)Cn2cnc3c2c(=O)n(C)c(=O)n3C)n(-c2ccccc2)n1`, the “hERG current change (%, negative = inhibition) at 1uM” value was -2.51%.

As for `COc1cc(N)c(C(O)c2nccc3cc(OC)c(OC)cc23)cc1OC` (stereo not shown), the “hERG current change (%, negative = inhibition) at 1uM” value turned out to be 16.2%. For `CC1(C)CC(N2CN(C3CCCCC3)CC2=O)CC(C)(C)N1`, the “hERG current change (%, negative = inhibition) at 1uM” value was determined as 8.03%. For the compound `COc1ccccc1C(=O)Nc1ccccc1C(=O)N1C(C)CCCC1C` (stereo not shown), the “hERG current change (%, negative = inhibition) at 1uM” value turned out to be 12.7%. For `COCCNC(=S)NNC(=O)c1cccs1`, the “hERG current change (%, negative = inhibition) at 1uM” value amounted to 15.9%. `O=C(CSc1nnc(-c2ccc(F)cc2)c2ccccc12)NCC1CCCO1` (stereo not shown): the “hERG current change (%, negative = inhibition) at 1uM” value is -8.17%. Under `N#Cc1c(NC(=O)CCC(=O)O)sc2c1CCCCC2` stands 5.91%; under `Cc1c(Br)c(C(=O)NNC(=O)c2ccc(C(C)(C)C)cc2)nn1C`, 12.3%; under `CCOC(=O)CSc1nnc(-c2ccc(OC)cc2)n1CC`, 11.2%. As to `NC(=O)c1nnn(-c2nonc2N)c1-c1ccc([N+](=O)[O-])cc1`, the “hERG current change (%, negative = inhibition) at 1uM” value stood at 7.76%. As to `CN1CCN(c2ncnc3scc(-c4ccccc4Cl)c23)CC1`, the “hERG current change (%, negative = inhibition) at 1uM” value is reported as -3.39%. Under `CCOc1ccc2ccccc2c1CNCCc1ccc(S(N)(=O)=O)cc1.Cl` stands -30.1%; under `CC(C)NC(=O)Cn1nnc(-c2cccc(NC(=O)c3ccccc3F)c2)n1`, 5.77%; under `CN(C)NC1=CC(=[N+]2CCCC2)CC(C)(C)C1.[I-]`, 14%. Consider `Cc1ccc(/C=N/N2CCN(c3ccncc3S(=O)(=O)N3CCCCC3)CC2)cc1`, for which the “hERG current change (%, negative = inhibition) at 1uM” value worked out at 5.34%. In the case of `COc1ccccc1N1CCN(C(=O)/C=C/c2ccc(C)cc2)CC1`, the “hERG current change (%, negative = inhibition) at 1uM” value is reported as 7.96%. Under `Cc1ccc(NC(=O)c2cc3ccccc3oc2=N)cc1` stands 11.2%. Then `COCCCNC(=O)c1ccc2c(c1)nc(C)n2-c1cccc(C)c1`, with 14%. Then `COc1cccc(/C=C/C(=O)NCCc2ccc3c(c2)OCCO3)c1`, with 4.9%. For the compound `CC1CN(C2CCN(C(=O)c3ccccc3)CC2)CC(C)O1` (stereo not shown), the “hERG current change (%, negative = inhibition) at 1uM” value was 4.85%. Then `Cc1ccc(N(C)S(=O)(=O)c2c(C)noc2/C=C/N(C)C)cc1`, with 3.86%; and `CCCn1c(=N)c(S(=O)(=O)c2ccc(F)cc2)cc2c(=O)n3ccccc3nc21`, with 6.66%. Under `Cc1ccc(NC(=O)COC(=O)CNC(=O)c2ccc(C)s2)cc1` stands 4.41%; under `NS(=O)(=O)c1cccc(NC(=O)CC23CC4CC(C2)CC(CC(=O)Nc2cccc(S(N)(=O)=O)c2)(C4)C3)c1`, 12.4%; under `CC(C)c1cc(-c2cc(C(=O)Nc3ccccc3)on2)nc(NCC2CC2)n1`, 15.6%. Consider `O=C(Oc1c(-c2ccccc2)c(=O)n2c3c(cccc13)CC2)c1ccccc1`, for which the “hERG current change (%, negative = inhibition) at 1uM” value is given as 7.02%. Then `CC(C)(C)c1ccc(/C=C/C(=O)NC2CCS(=O)(=O)C2)cc1` (stereo not shown), with 5.15%.

On to `COc1c(F)c(F)c(C(=O)Nc2ccc(N3CCN(Cc4ccccc4)CC3)cc2)c(F)c1F`, for which the “hERG current change (%, negative = inhibition) at 1uM” value was 0.0603%.
